Experimental data from PubChem BioAssay AID2546 (National Center for Advancing Translational Sciences (NCATS), 2010).
The whole screen tested about 310,000 compounds, of which about 11,000 (3.5%) were called active. This list was built around the results that the source calls inconclusive (neither active nor inactive); the mix of calls is not that of the screen. Calls follow the shape of the dose curve; as a rule, active = well fitted inhibition curve with a large enough effect; inconclusive = small, poorly fitted or top-dose-only effect, or effect the other way; inactive = flat fitted curve, though single readings scatter. Potencies of inconclusive entries are left out as doubtful fits.

Test: VP16 counterscreen qHTS for inhibitors of ROR gamma transcriptional activity;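 also: Gal4-VP16 expression switched on by copper sulfate through the metallothionein promoter; nearly all actives have a fitted effect of over 50% in size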
Conditions: Drosophila S2 Gal4-VP16 UAS-luciferase, luminescence, 20 h; activity, negative = inhibition: at 53.6 µM (top of the series)
% is scaled to controls: 0 for no effect and ±100 for the full control effect; potency is read from the fitted curve at half-maximal effect; tags tell the direction and shape of the fitted curve.

Structure (SMILES)	Potency	activity, negative = inhibition
Cc1cc2oc(=O)cc(CSc3nnc(-c4cccs4)o3)c2cc1C(C)C	inconclusive [inhibitor, partial curve, poor fit]	
COc1ccc(-c2csc(NC(=S)NC(=O)c3ccc4ccccc4c3)n2)cc1OC	inconclusive [inhibitor, partial curve, poor fit]	
CCc1ccc(C(C)NC(=O)c2cc(C)oc2C)cc1 (centres undefined)	inconclusive [inhibitor, single point]	
COc1ccc(CNC(=O)CN(C(=O)c2csnn2)c2cnc3ccccc3c2)cc1		inactive: -5.34%
CC(NC(=O)CCCCCCN1C(=O)c2ccccc2C1=O)c1ccc2c(c1)CCCC2 (centres undefined)	active: 10 µM	
CCOc1cc(NC(=S)NCc2ccco2)c(OCC)cc1NC(=O)CC	inconclusive [inhibitor, single point]	
CCc1ccc(/C=N/NC(=O)c2ccccn2)cc1	inconclusive [inhibitor, full curve]	
C=CCNC(=S)NC(=O)c1ccc(C)c(Br)c1	inconclusive [inhibitor, partial curve, poor fit]	
Fc1cccc2sc(Nc3nc4cc5c(cc4s3)OCCO5)nc12	active: 11.2 µM	
O=C(Cc1ccccc1)NNC(=O)c1cnccn1	inconclusive [activator, single point]	
CC(=O)/C(=N\Nc1ccccc1)Sc1cccc2cccnc12	inconclusive [inhibitor, single point]	
COC1CCCN(Cc2cn(C)nc2-c2ccc(Oc3ccccc3)cc2)C1 (centres undefined)		inactive: -5.07%
COc1cccc(C2CC(c3cccc(Br)c3)n3ncnc3N2)c1 (centres undefined)	inconclusive [inhibitor, single point]	
CCC1=NN(C(=O)c2cccc([N+](=O)[O-])c2)C(O)(c2ccc(C)cc2)C1 (centres undefined)	active: 5.62 µM	
Cc1ccc2nc(NC(=O)c3ccc(Cl)s3)sc2c1	inconclusive [inhibitor, full curve]	
Fc1ccc2nc(Nc3nc4cc5c(cc4s3)OCO5)sc2c1	inconclusive [inhibitor, single point]	
O=C(C(Sc1ccccc1)c1ccccc1)N1CCN(c2ccccc2F)CC1 (centres undefined)	inconclusive [inhibitor, single point]	
CCN(CC)c1ccc(NC(=S)NCC2CCCO2)cc1 (centres undefined)	active: 12.6 µM	
Cc1cccc(NC(=O)Nc2nnc(N3CCCCC3C)s2)c1C (centres undefined)		inactive: 0.25%
Cc1nn(-c2ccccc2)c(C)c1C(=O)Oc1ccccc1	inconclusive [activator, full curve, poor fit]	
Cc1cc(CN(C)C(=O)c2cc(COc3ccc4ncccc4c3)on2)on1	active: 3.16 µM	
COC(=O)NC(=C(Cl)Cl)S(=O)(=O)c1ccccc1	active: 17.8 µM	
OC(CNCCc1ccc(Cl)cc1)COc1ccc2ccccc2c1 (centres undefined)	inconclusive [inhibitor, single point]	
CCCC(=O)Nc1nc2ccc(NC(=O)c3ccc(Br)o3)cc2s1	inconclusive [inhibitor, single point]	
CN(C)c1ccc(NC(=S)NC(=O)/C=C/c2ccco2)cc1		inactive: 9.34%

Structure (SMILES)	Potency	activity, negative = inhibition
CCc1ccc(-c2cn(C3CCCCC3)c(=S)[nH]2)cc1	inconclusive [inhibitor, single point]	
CCN(CC)S(=O)(=O)c1cc(C(=O)Nc2ccccc2[N+](=O)[O-])ccc1Cl	inconclusive [activator, single point]	
COCC(COS(N)(=O)=O)Cc1ccccc1 (centres undefined)		inactive: -4.22%
COc1ccc2[nH]cc(CCNc3nc(-c4ccc(N(C)C)cc4)nc4ccccc34)c2c1	inconclusive [inhibitor, single point]	
CCN(CC)CC(=O)Nc1sc2c(c1C(=O)c1ccccc1C)CCC2	active: 17.8 µM	
CC(C)C[C@@H](CO)N1CCN(Cc2ccc(Br)cc2)CCC1=O		inactive: 1.3%
C=CCC1S/C(=N/N=C/c2cccs2)NC1=O (centres undefined)	active: 5.62 µM	
Cc1cc(N)n(Cc2cccs2)n1		inactive: 3.77%
COc1ccc(N2CCN(Cc3csc(C)c3-c3ccc(C)cc3)CC2)cc1		inactive: -7.42%
COc1cc(CNc2ccc3[nH]c(=O)[nH]c3c2)ccc1OCc1ccc(Cl)cc1	inconclusive [inhibitor, single point]	
COc1cc(OC)cc(C(=O)Nc2ccc([N+](=O)[O-])cn2)c1		inactive: 2.47%
S=C(NCc1ccccc1)NCc1cccc(Cl)c1	inconclusive [inhibitor, single point]	
Cc1cc(C)c2[nH]c(=O)c(C(c3nnnn3C(C)(C)C)N(Cc3ccco3)CC3CCCO3)cc2c1 (centres undefined)		inactive: -6.72%
CCOC(=O)c1ccc(NC(=S)NC2CCCC2)cc1	inconclusive [inhibitor, single point]	
CCOC(=O)c1sc(C)c2c1NC(c1ccc(Cl)cc1)NC2=O (centres undefined)	inconclusive [inhibitor, single point]	
O=C(Cc1ccccc1)Nc1cc(Cl)ccc1Sc1ccccc1	inconclusive [inhibitor, single point]	
CCOCCCNCc1ccc(OC)cc1		inactive: 17.5%
COc1cccc(CSc2nc3ccccc3cc2C=O)c1	inconclusive [inhibitor, single point]	
O=C(NNc1nc(Nc2ccccc2)nc(N2CCOCC2)n1)Nc1ccc(Cl)cc1	active: 5.62 µM	
CCN(CC)c1ccc(/C=C/C(=O)C2C(=O)C=C(C)OC2=O)cc1 (centres undefined)	inconclusive [inhibitor, single point]	
O=S(=O)(Nc1ccccc1O)c1ccc(-c2ccccc2)cc1	inconclusive [inhibitor, single point]	
C/C(=N\NC(=O)c1nc(C)cc(C)n1)c1ccccc1		inactive: -5.35%
O=[N+]([O-])c1ccc(-c2csc(Nc3ccccc3)[n+]2Cc2ccccc2)cc1	inconclusive [inhibitor, single point]	
Cc1ccc2oc(=O)n(Cc3ccccc3OC(C)C)c2c1	inconclusive [inhibitor, single point]	
